{"source": "paper PMC4336329", "about": "(PLoS ONE, 2015)", "note": "In all, about 310,000 compounds went through this assay and about 2,200 (0.71%) showed an effect of 50% or more. Effects have a minus sign here. This is one part of the list.", "data": [{"target": "human ether-à-go-go-related gene (hERG) potassium channel (human, UniProt Q12809)", "sequence (Q12809 whole entry, looked up)": "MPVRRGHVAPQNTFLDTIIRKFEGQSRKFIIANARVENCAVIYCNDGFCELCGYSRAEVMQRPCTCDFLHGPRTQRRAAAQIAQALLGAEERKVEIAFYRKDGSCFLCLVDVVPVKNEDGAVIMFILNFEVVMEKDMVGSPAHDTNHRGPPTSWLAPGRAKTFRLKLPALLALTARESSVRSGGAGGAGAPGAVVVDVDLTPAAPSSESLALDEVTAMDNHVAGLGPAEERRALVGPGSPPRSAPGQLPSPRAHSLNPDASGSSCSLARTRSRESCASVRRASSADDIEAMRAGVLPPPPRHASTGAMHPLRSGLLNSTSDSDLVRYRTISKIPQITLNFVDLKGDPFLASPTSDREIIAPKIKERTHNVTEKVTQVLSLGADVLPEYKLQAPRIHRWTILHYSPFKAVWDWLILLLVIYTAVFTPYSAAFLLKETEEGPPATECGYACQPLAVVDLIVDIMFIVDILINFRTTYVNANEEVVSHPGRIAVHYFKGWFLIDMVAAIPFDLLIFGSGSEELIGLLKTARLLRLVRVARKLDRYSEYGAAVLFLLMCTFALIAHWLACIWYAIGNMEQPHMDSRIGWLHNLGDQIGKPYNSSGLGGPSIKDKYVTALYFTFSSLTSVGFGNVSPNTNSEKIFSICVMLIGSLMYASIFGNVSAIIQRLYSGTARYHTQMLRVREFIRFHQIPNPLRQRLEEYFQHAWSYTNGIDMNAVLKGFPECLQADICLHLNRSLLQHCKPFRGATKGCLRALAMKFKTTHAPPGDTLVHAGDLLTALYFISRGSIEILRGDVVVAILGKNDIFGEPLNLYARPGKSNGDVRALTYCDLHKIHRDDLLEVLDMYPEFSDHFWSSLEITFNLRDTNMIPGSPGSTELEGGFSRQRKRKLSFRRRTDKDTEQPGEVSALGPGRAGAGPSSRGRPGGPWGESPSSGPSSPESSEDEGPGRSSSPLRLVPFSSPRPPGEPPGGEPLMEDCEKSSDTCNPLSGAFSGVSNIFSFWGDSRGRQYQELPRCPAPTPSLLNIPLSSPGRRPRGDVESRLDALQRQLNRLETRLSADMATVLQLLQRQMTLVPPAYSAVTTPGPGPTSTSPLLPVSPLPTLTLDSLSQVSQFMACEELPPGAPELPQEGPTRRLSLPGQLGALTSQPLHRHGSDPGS", "experiment": "primary screen, population patch clamp on CHO cells stably expressing hERG", "units": {"hERG current change (%, negative = inhibition) at 1uM": "%"}, "values": [{"compound": "NS(=O)(=O)c1ccc(-n2nncc2C23CC4CC(CC(C4)C2)C3)cc1", "hERG current change (%, negative = inhibition) at 1uM": 8.1}, {"compound": "Cn1c(NC(=O)C2CCCC2)cc(=O)n(C)c1=O", "hERG current change (%, negative = inhibition) at 1uM": 11.2}, {"compound": "Br.COCCn1c(-c2ccccc2)csc1=Nc1cccnc1", "hERG current change (%, negative = inhibition) at 1uM": -10.8}, {"compound": "COc1ccc(N2CCN(C(=O)c3ccc(CNS(=O)(=O)c4cccc(OC)c4)cc3)CC2)cc1", "hERG current change (%, negative = inhibition) at 1uM": 8.36}, {"compound": "O=C(NC1CCCCC1)N1CCC(n2c(=O)[nH]c3ccccc32)CC1", "hERG current change (%, negative = inhibition) at 1uM": 4.29}, {"compound": "CC(=O)Nc1ccc(Oc2ccc3c(c2)C(=O)NC3=O)cc1", "hERG current change (%, negative = inhibition) at 1uM": 20.8}, {"compound": "CCc1ccc(CNc2ccc(N3CCN(C(C)=O)CC3)cc2)cc1", "hERG current change (%, negative = inhibition) at 1uM": -0.228}, {"compound": "CCOc1cc(/C=N/NC(=O)OC)ccc1OCCSc1ccc(Cl)cc1", "hERG current change (%, negative = inhibition) at 1uM": 3.82}, {"compound": "Cc1ccc2cc(C=O)c(N3CCOCC3)nc2c1C", "hERG current change (%, negative = inhibition) at 1uM": 16.1}, {"compound": "CN1CCSc2ccc(C(=O)NCc3ccccc3)cc21", "hERG current change (%, negative = inhibition) at 1uM": 0.0917}, {"compound": "CCC1CCCCN1CCNC(=O)C1CCN(S(=O)(=O)c2cccc3nsnc23)CC1", "note": "(stereo not shown)", "hERG current change (%, negative = inhibition) at 1uM": 1.72}, {"compound": "COc1ccc([C@H]2[C@H](C(C)=O)N3N=Cc4ccccc4C3C23C(=O)OC(C)(C)OC3=O)cc1", "note": "(stereo partly shown)", "hERG current change (%, negative = inhibition) at 1uM": -1.51}, {"compound": "CC(=O)c1c(C)[nH]c(C(=O)CSc2nnc(CN3CCCCCC3=O)n2-c2ccccn2)c1C", "hERG current change (%, negative = inhibition) at 1uM": 13.1}, {"compound": "CC(C(=O)c1c[nH]c2ccccc12)N1CCc2ccccc2C1", "note": "(stereo not shown)", "hERG current change (%, negative = inhibition) at 1uM": 5.04}, {"compound": "COCC(=O)NC1CCN(C(=O)Nc2ccc(Br)cc2)CC1", "hERG current change (%, negative = inhibition) at 1uM": 1.87}, {"compound": "COc1ccc(C(CC(=O)O)NC(=O)c2ccco2)cc1", "note": "(stereo not shown)", "hERG current change (%, negative = inhibition) at 1uM": 9.28}, {"compound": "CCOc1ccc(-n2c(=O)c3c4c(sc3n(CC(=O)NCC3CCCO3)c2=O)CCC4)cc1", "note": "(stereo not shown)", "hERG current change (%, negative = inhibition) at 1uM": 11}, {"compound": "NC(=O)C1CCN(C(=O)CSc2nc3c(c(-c4ccccc4)n2)CCCC3)CC1", "hERG current change (%, negative = inhibition) at 1uM": -3.4}, {"compound": "COc1ccc(Nc2nc(N(C)c3ccccc3)nc(N)c2[N+](=O)[O-])cc1", "hERG current change (%, negative = inhibition) at 1uM": 10.5}, {"compound": "Cc1ccc(C(=O)NCC(c2ccco2)N2CCOCC2)cc1", "note": "(stereo not shown)", "hERG current change (%, negative = inhibition) at 1uM": 5.57}, {"compound": "O=S(=O)(NC(=S)c1ccccc1)c1ccc(Cl)cc1", "hERG current change (%, negative = inhibition) at 1uM": 13.9}, {"compound": "O=C(NCCNc1nccc(C(F)(F)F)n1)c1cccs1", "hERG current change (%, negative = inhibition) at 1uM": 7.73}, {"compound": "O=[N+]([O-])c1cccc(NC(=S)NCc2ccncc2)c1", "hERG current change (%, negative = inhibition) at 1uM": 8.67}, {"compound": "O=C(c1cccc(S(=O)(=O)N2CCOCC2)c1)N(CCc1ccccc1)Cc1ccccc1", "hERG current change (%, negative = inhibition) at 1uM": -1.79}, {"compound": "COc1ccc(C(=O)NC(=S)N2CCN(c3ccccc3OC)CC2)cc1OC", "hERG current change (%, negative = inhibition) at 1uM": 22.4}, {"compound": "Cc1nnc(SCC(=O)N2c3ccccc3CC2C)[nH]c1=O", "note": "(stereo not shown)", "hERG current change (%, negative = inhibition) at 1uM": 16}, {"compound": "COc1ccc([N+](=O)[O-])cc1NC(=O)CSc1ncccn1", "hERG current change (%, negative = inhibition) at 1uM": 8.53}, {"compound": "O=C(NCc1ccco1)NC12CC3CC(CC(C3)C1)C2", "hERG current change (%, negative = inhibition) at 1uM": 15.4}, {"compound": "CCOC(=O)C(C)(C)N(Cc1cccc(C)c1)S(=O)(=O)c1ccc(Cl)c([N+](=O)[O-])c1", "hERG current change (%, negative = inhibition) at 1uM": 14.4}, {"compound": "O=C(COc1ccc(Br)cc1)Nc1cc(S(=O)(=O)N2CCCCC2)ccc1N1CCCCC1", "hERG current change (%, negative = inhibition) at 1uM": 11.7}, {"compound": "OC1(c2cccc(C(F)(F)F)c2)CCN(c2ncnc3c2[nH]c2ccccc23)CC1", "hERG current change (%, negative = inhibition) at 1uM": 17.8}, {"compound": "Cc1cc(OC(=O)Cc2cccc3ccccc23)c([N+](=O)[O-])c(=O)[nH]1", "hERG current change (%, negative = inhibition) at 1uM": 13.5}, {"compound": "COC(=O)CCN1CCC(c2cc(-c3cccc(C(F)(F)F)c3)n[nH]2)CC1", "hERG current change (%, negative = inhibition) at 1uM": -22}, {"compound": "O=C(NCc1ccccc1Cl)c1ccc2c(c1)SC1=NS(=O)(=O)CCN12", "hERG current change (%, negative = inhibition) at 1uM": 7.72}, {"compound": "O=S(=O)(Nc1ccc(Nc2ccccc2)cc1)c1ccc(F)cc1", "hERG current change (%, negative = inhibition) at 1uM": 9.61}, {"compound": "CC1(C)Cc2ccccc2-c2c1c(=O)n(Cc1ccccc1)c1nnnn21", "hERG current change (%, negative = inhibition) at 1uM": -3.3}, {"compound": "CNC(=O)C(NC(=O)CNC(=O)c1ccc(Cl)cc1)C(C)(C)C", "note": "(stereo not shown)", "hERG current change (%, negative = inhibition) at 1uM": 17.7}, {"compound": "CC(=O)OC1CCC2(C)C(CCC3C2CC(OC(C)=O)C2(C)C3C[C@@H]3O[C@]4(CC[C@@H](C)CO4)[C@@H](C)C32)C1", "note": "(stereo partly shown)", "hERG current change (%, negative = inhibition) at 1uM": 9.69}, {"compound": "Cc1cc(C)c2c(CN3CCN(C)CC3)cc(=O)oc2c1", "hERG current change (%, negative = inhibition) at 1uM": -48.5}, {"compound": "Cc1ccc2nc(NCc3ccco3)c(C=NCc3ccco3)c(=O)n2c1", "hERG current change (%, negative = inhibition) at 1uM": 12.8}, {"compound": "Cc1ccc(S(=O)(=O)N2CCC(C(=O)OCC(=O)N(C)c3ccccc3)CC2)cc1C", "hERG current change (%, negative = inhibition) at 1uM": 9.41}, {"compound": "Cc1ccc(-c2noc(CCC(=O)NC3CCCC3)n2)cc1", "hERG current change (%, negative = inhibition) at 1uM": 11.1}, {"compound": "COc1cc(C(=O)N2CCN(S(=O)(=O)c3cccc(F)c3)CC2)ccc1OCC(=O)N1CCOCC1", "hERG current change (%, negative = inhibition) at 1uM": 11.7}, {"compound": "COc1ccc(S(=O)(=O)N(C)c2ccc(C(=O)N3CCOCC3)cc2)cc1", "hERG current change (%, negative = inhibition) at 1uM": -3.94}, {"compound": "CC1C(=O)C(C)C(c2ccc(O)cc2)NC1c1ccc(O)cc1", "note": "(stereo not shown)", "hERG current change (%, negative = inhibition) at 1uM": 16.4}, {"compound": "O=C(c1ccc2c(c1)OCO2)N1CCOCC1", "hERG current change (%, negative = inhibition) at 1uM": 14.5}, {"compound": "Cc1cc2c(cc1S(=O)(=O)N1CC(C)CC(C)C1)OCC(=O)N2", "note": "(stereo not shown)", "hERG current change (%, negative = inhibition) at 1uM": 8.71}, {"compound": "CSc1ccccc1C(=O)N1CCC(n2nccc2NC(=O)C(C)(C)C)CC1", "hERG current change (%, negative = inhibition) at 1uM": 26.9}, {"compound": "NC(=O)c1ccc(NC(=O)CCNC(=O)c2ccco2)cc1", "hERG current change (%, negative = inhibition) at 1uM": 5.05}, {"compound": "CCOc1cc(-c2nc3ccccc3s2)ccc1O", "hERG current change (%, negative = inhibition) at 1uM": 10.3}, {"compound": "CC(=O)NCCSCCNC(C)=O", "hERG current change (%, negative = inhibition) at 1uM": 12.2}, {"compound": "COc1ccc(Cc2nnc(SCC(=O)Nc3ccc(N4CCOCC4)cc3)n2C)cc1", "hERG current change (%, negative = inhibition) at 1uM": 8.08}, {"compound": "COC(=O)c1cc(NC(=O)c2cc(-c3ccc(Cl)cc3)oc2C(F)(F)F)ccc1N1CCOCC1", "hERG current change (%, negative = inhibition) at 1uM": 12.5}, {"compound": "O=C1CC(N2CCN(c3ccccc3)CC2)C(=O)N1Cc1ccc(Cl)cc1", "note": "(stereo not shown)", "hERG current change (%, negative = inhibition) at 1uM": -3.82}, {"compound": "COc1cc(C)c(-c2nc(CN3C[C@@H]4C[C@@H](C3)c3cccc(=O)n3C4)c(C)o2)cc1C", "hERG current change (%, negative = inhibition) at 1uM": 2.53}]}]}
